Results taken from PubChem BioAssay AID1508623 (National Center for Advancing Translational Sciences (NCATS), 2021).
In all, about 48,000 compounds went through this assay and about 450 (0.94%) were called active. Inconclusive results (about 19%) are left out. Calls follow the shape of the dose curve; as a rule, active = well fitted inhibition curve with a large enough effect; inconclusive = small, poorly fitted or top-dose-only effect; inactive = no such curve, though single readings can be large or run the other way. Some of the results follow.

Test: Primary qHTS for Identification of Small Molecule Inhibitors of Huntingtin Promoter Activity; also: nearly all actives have a fitted effect of over 50% in size
Settings: HEK293 HTT promoter firefly luciferase reporter (activity 0% = vehicle and -100% = no light), 24 h; series mostly up to 57.5 µM; activity change, negative = inhibition: at the top concentration
Summary of the method: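 HEK293 luciferase promoter-reporter cells (2,500/well) plated 24 h, then compounds added at up to 57.5 uM final for 24 h at 37 °C. Firefly luminescence by Dual-Glo, normalized to vehicle (0%) and zero RLU (-100%).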
Potency is read from the fitted curve at half-maximal effect.

Compound | activity change, negative = inhibition | Potency
COc1ccccc1NC(=O)Cn1c(SCC(=O)N(C)c2ccccc2)nc2ccccc21 | inactive: -23.4% | –
Cc1cc2nc(-c3ccc(OCc4ccccc4Cl)cc3)cc(C(F)(F)F)n2n1 | inactive: 0.6% | –
Fc1ccc(Nc2ncnc3onc(-c4cccc(Cl)c4)c23)c(F)c1 | inactive: 7.53% | –
COc1cccc2c1cc1c(=O)n(CC(=O)N3CCN(c4ccc(Cl)cc4)CC3)nc(C)n12 | inactive: -2.96% | –
Cc1ccc(S(=O)(=O)NC2(C(F)(F)F)NC(=O)N(CCc3ccccc3)C2=O)cc1 (stereo unspecified) | inactive: -10.9% | –
CCOc1ccccc1NC(=O)CSc1nnc2[nH]c(=O)cc(-c3ccccc3)n12 | inactive: -4.27% | –
O=C(Nc1ccccc1Cl)C1CCN(c2nc3ccccc3nc2C(F)(F)F)CC1 | inactive: -27.5% | –
CCOC(=O)c1cc2c(=O)n3ccccc3nc2n(C(C)C)c1=NC(=O)c1cc2ccccc2o1 | inactive: -9.25% | –
COc1ccc(CNC(=O)CN2C(=O)COc3ccc(S(=O)(=O)Nc4ccccc4)cc32)cc1 | inactive: -16.7% | –
COc1ccc(-n2nc(C(=O)N3CCCC(C)C3)c3c4ccccc4n(C)c3c2=O)cc1 (stereo unspecified) | inactive: -18.5% | –
O=C(c1ccccc1)n1nc(-c2ccccc2)nc1NCc1ccc(F)cc1 | inactive: -8.25% | –
CCc1ccc(C(=O)c2cn(CC(=O)NC3CCCCC3)c3nc(C)ccc3c2=O)cc1 | inactive: -5.78% | –
CNC(=O)c1c(NC(=O)c2ccc(S(=O)(=O)N3CCCCC3)cc2)sc2c1CCC2 | inactive: -5.86% | –
COc1ccc(-n2ccnc(NCc3ccccc3OC)c2=O)cc1 | inactive: -25.6% | –
CCOc1ccc(N2CC(NC(=O)/C=C\c3ccc4c(c3)OCO4)CC2=O)cc1 (stereo unspecified) | inactive: -9.76% | –
O=S(=O)(Nc1cc(F)ccc1F)c1ccc2[nH]c3c(c2c1)CCCC3 | inactive: -4.45% | –
CSc1nc2c(c(=O)[nH]1)C(c1cccc(F)c1F)CC(=O)N2 (stereo unspecified) | inactive: -17.7% | –
CC(C)(C)C(=O)Nc1ccc2nc(SCC(=O)N3CCOCC3)sc2c1 | inactive: 0.415% | –
CC(C)c1ccc(NC(=O)CS(=O)(=O)c2cccc3nsnc23)cc1 | inactive: -7.31% | –
COc1cccc(CNC(=O)c2ccc3c(c2)c(C)c(C)n3Cc2ccccc2)c1OC | inactive: -5.2% | –
CCCCN(CCCC)CCNC(=O)Cn1nc(C)n2c(cc3sccc32)c1=O | inactive: -6.15% | –

Compound | activity change, negative = inhibition | Potency
COc1ccc(NS(=O)(=O)c2cc(Br)cc3c2N(C(=O)C2CC2)CC3)cc1OC | – | active: 5.62 µM
CCOC(=O)c1ccccc1NC(=O)CSc1ccc(-c2cccs2)nn1 | inactive: -22% | –
Cc1cc(-c2nc3ncccc3o2)ccc1NC(=O)COc1ccccc1C | inactive: 5.53% | –
COc1ccc(-c2cc(C(F)(F)F)nc(SCCC(=O)Nc3ccccc3F)n2)cc1 | inactive: -2.94% | –
O=C(Cc1ccccc1)NC1CC(=O)N(c2ccccc2)C1 (stereo unspecified) | inactive: -17.9% | –
CCc1ccc(Nc2nn(-c3ccc(OC(F)(F)F)cc3)nc2C(C)=O)cc1 | inactive: 1.7% | –
Cc1ccc(-c2noc(CNS(=O)(=O)c3ccc(F)cc3)n2)cc1 | inactive: -28.4% | –
Cn1cc(S(=O)(=O)c2cccc(Cl)c2)c(=O)c2cc(F)c(N3CCN(c4ccc(F)cc4)CC3)cc21 | inactive: -12.9% | –
COc1ccccc1N1CCN(C(=O)CN2C(=O)COc3ccc(S(=O)(=O)N4CCCCCC4)cc32)CC1 | inactive: -14.8% | –
Cc1cccc(OCC(=O)Nc2nc3c(s2)CC(C(C)(C)C)CC3)c1C (stereo unspecified) | inactive: -5.68% | –
Cc1c(NC(=O)c2cc(-c3ccc(F)cc3)on2)c(=O)n(-c2ccccc2)n1C | inactive: -4.32% | –
CCN(CC)c1ccc(NC(=O)c2cnc3c(-c4ccccc4)c(C)nn3c2C)c(C)c1 | inactive: -28.5% | –
Cc1nnc(N2CCN(C(=O)NC(C)C)CC2)c2nn(-c3ccccc3)c(C)c12 | inactive: -5.82% | –
COc1ccc(C)cc1NC(=O)c1ccc2c(SCC(=O)O)c3c(nc2c1)CCCC3 | inactive: -49.3% | –
CCOc1ccc(NC(=O)C2CC(=O)N(c3ccc(C(C)C)cc3)C2)cc1 (stereo unspecified) | inactive: -1.72% | –
Cn1c(=O)n(-c2ccc3c(c2)OCO3)c2nc(-c3ccccc3)nc(C(N)=O)c21 | inactive: -8.81% | –
COc1cccc2c1cc1c(=O)n(CC(=O)N3CCN(c4cccc(C)c4)C(C)C3)nc(C)n12 (stereo unspecified) | inactive: -2.53% | –
Cc1cc(C)cc(NC(=O)CSc2cc(C)[nH]c(=O)n2)c1 | inactive: -0.653% | –
CCOC(=O)CC(NC(=O)Cn1nnc(-c2ccc(C(F)(F)F)cc2)n1)c1ccc(OC)cc1 (stereo unspecified) | inactive: -22.9% | –
CC(=O)Nc1ccc(-c2cc(C(=O)O)c3c(-c4ccccc4)[nH]nc3n2)cc1 | inactive: -4.76% | –
COc1ccc(C(=O)N2CCN(Cc3cc(=O)n4nc(-c5ccccc5C)sc4n3)CC2)cc1OC | inactive: -22.5% | –

Compound | activity change, negative = inhibition | Potency
CCCCNC(=O)c1nn(-c2ccc(CC)cc2)nc1CO | inactive: -4.05% | –
CC1CCC(NC(=O)c2ccc3c(c2)N(Cc2cccc(Cl)c2)C(=O)c2ccccc2S3(=O)=O)CC1 (stereo unspecified) | inactive: -12.6% | –
CCc1ccccc1NC(=O)Cn1nnc(C(=O)NCc2ccccc2Cl)c1N | inactive: -21.3% | –
CCN(CC)CC(C)CNC(=O)c1cc(-c2ccc(Br)s2)nc2ccccc12 (stereo unspecified) | inactive: -17.8% | –
CCN(CC)CCCNC(=O)CN1C(=O)CCn2nc(-c3cn(C)c4ccccc34)cc21 | inactive: 0% | –
COc1ccc(-c2nc3c4ccccc4n(CC(=O)N4CCN(c5ccccc5OC)CC4)c(=O)n3n2)cc1 | inactive: -11% | –
COc1cccc(-n2c(=O)c3c4c(sc3n(Cc3ccc(C)cc3)c2=O)CCCC4)c1 | inactive: 11.3% | –
Cc1ccc2nc(-c3ccccc3F)c(Nc3ccc(Cl)cc3)n2c1 | inactive: -17.8% | –
Cc1nnc(NC(=O)CSCc2cc(=O)c3cc(Cl)ccc3[nH]2)s1 | inactive: 7.41% | –
Cc1ccc(C(=O)c2cn(CC(=O)NC3CCCCC3)c3nc(C)ccc3c2=O)cc1 | inactive: 3.64% | –
Cc1c(C(=O)N2CCCC2)oc2c1-c1nn(CC(=O)NCCCOC(C)C)cc1CC2 | inactive: -17.9% | –
O=C(NC1CC(=O)N(c2cccc(F)c2)C1)C1CCCC1 (stereo unspecified) | inactive: 3.18% | –
COc1cc(-c2nc(Cn3nnc(C(=O)Nc4ccccc4)c3C)c(C)o2)cc(OC)c1OC | inactive: -20.4% | –
COc1ccccc1-n1ncc2c(=O)[nH]c(SCC(=O)Nc3ccc(Cl)cc3)nc21 | inactive: -32.5% | –
Cc1ccc(CNC(=O)c2cccn2-c2nnc(N3CCCCC3)s2)cc1 | inactive: -12.9% | –
O=C(Nc1cc2c(cc1C(=O)c1ccccc1)OCCO2)c1ccc(Br)cc1 | inactive: -7.62% | –
CN(C)CCN(Cc1ccccc1)S(=O)(=O)c1ccc2[nH]c(=O)ccc2c1 | inactive: -19.8% | –
O=C(c1cccn1-c1nnc(N2CCCC2)s1)N1CCN(c2ccccc2)CC1 | inactive: -18.9% | –
CCOC(=O)COc1ccc2c(C)c(CCN(CC)CC)c(=O)oc2c1Cl | inactive: 11% | –
